Test results: PubChem BioAssay AID504832 (National Center for Advancing Translational Sciences (NCATS), 2011)
In all, about 310,000 compounds went through this assay and about 18,000 (5.8%) were called active. Inconclusive means that the source gave no clear call. Such entries were picked first, then a sample of the others. Calls follow the shape of the dose curve; as a rule, active = well fitted inhibition curve with a large enough effect; inconclusive = small, poorly fitted or top-dose-only effect, or another doubt; inactive = no such curve, though single readings can be large or run the other way. Potencies of inconclusive entries are left out as doubtful fits.

Test: Primary qHTS for delayed death inhibitors of the malarial parasite plastid, 48 hour incubation
Conditions: P. falciparum luciferase growth in erythrocytes; series mostly up to 28.7 µM
Outline: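 Firefly luciferase activity from engineered P. falciparum reports growth; inhibitors lower the luminescent signal. Cultures contained 2% hematocrit erythrocytes at 0.1% final parasitemia.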
Potency is read from the fitted curve at half-maximal effect; tags tell the direction and shape of the fitted curve.

SMILES	Potency
O=C(CCCC(=O)Nc1cccc(Br)c1)N/N=C/c1cc([N+](=O)[O-])ccc1O	active: 10.4 µM
CCN(C(=O)c1cnc(NC(C)C)cc1C(F)(F)F)c1ccc(Cl)cc1Cl	active: 2.94 µM
Cc1nc2c(=O)[nH]c(=S)n(C)c2nc1C	inactive
O=C1CC(c2ccccc2)CC(O)=C1C=NCCN1CCN(C(=S)Nc2cccc(Cl)c2)CC1 (configuration not stated)	inconclusive [inhibitor, partial curve, poor fit]
Cc1ccc(Cl)cc1N1CCN(C(=O)CN(C2CCCCC2)S(C)(=O)=O)CC1	inconclusive [inhibitor, single point]
COc1ccc(C2=CC(c3ccc(C)cc3)n3nnnc3N2)cc1 (configuration not stated)	inconclusive [inhibitor, single point]
CC1SCC(=O)N(CC(=O)NC2CCCCC2)C1=O (configuration not stated)	inactive
COc1ccc(NCc2ccc(OC)c(Cn3ccnc3)c2)c(OC)c1	inconclusive [inhibitor, single point]
O=C1c2[nH]nc(-c3ccccc3O)c2C(c2cccc(Cl)c2)N1CC1CCCO1 (configuration not stated)	inconclusive [inhibitor, full curve]
CCCOc1ccccc1C(=O)Nc1ccc(S(=O)(=O)N2CCN(C)CC2)cc1	inconclusive [inhibitor, partial curve, poor fit]
COc1ccc(-c2ccc(NC(=O)c3ccco3)cc2)nn1	inconclusive [inhibitor, single point]
CCn1c(CNC(=O)c2ccco2)nnc1SCC(=O)Nc1ccccc1Cl	inactive
NS(=O)(=O)c1cccc(NC(=O)Nc2ccccc2)c1	active: 2.08 µM
O=C(O)c1ccccc1OCc1ccccc1Cl	inconclusive [inhibitor, partial curve]
CN(C)CCOCCOc1ccc(Cl)cc1Br	inconclusive [inhibitor, single point]
Cc1ccc(N(CC(=O)NCCSCc2ccco2)S(=O)(=O)c2ccc(F)cc2)cc1	inactive
CC(C)(C)C(=O)Nc1ccc(F)cc1[N+](=O)[O-]	inactive
CCn1c(=NC(=O)CSC(C)=O)sc2cc(F)ccc21	inconclusive [inhibitor, partial curve, poor fit]
COc1ccc(Cl)cc1NC(=O)CN1CCc2ccccc2C1	inconclusive [inhibitor, partial curve, poor fit]
Cc1cc(C)n(-c2nc(SCC(=O)NCC3CCCO3)c3c4c(sc3n2)CCCC4)n1 (configuration not stated)	active: 11.7 µM
Cc1ccccc1Oc1ccc(NC(=O)C2CC=CCC2C(=O)O)cc1 (configuration not stated)	inactive
COc1ccc(C)cc1NC(=O)CN1CCN(c2ccc(F)cc2)CC1	inconclusive [inhibitor, partial curve]
COc1ccc(-n2ccnc2SCC(=O)Nc2ccccc2)cc1	inconclusive [inhibitor, single point]
COc1ccc(C(=O)Nc2cccc(/C(C)=N/NC(=O)c3ccc([N+](=O)[O-])cc3)c2)cc1OC	inactive

SMILES	Potency
COc1ccc(C(=O)Nc2ccccc2N2CCCC2)cc1S(=O)(=O)N1CCOCC1	inconclusive [inhibitor, partial curve, poor fit]
CCOc1ccc(OCC)c(NC(=O)CSc2nc3c(c(=O)n(C)c(=O)n3C)n2CC)c1	inconclusive [inhibitor, single point]
O=C(Cc1ccc(Cl)cc1Cl)Nc1ccncc1	inconclusive [inhibitor, single point]
C=CCOc1ccc(/C=C2\SC(=Nc3cccnc3)NC2=O)cc1	inconclusive [inhibitor, partial curve, poor fit]
O=C(NNC(=S)NC(=O)c1ccco1)c1ccc(NC(=O)c2ccccc2)cc1	inconclusive [inhibitor, partial curve, poor fit]
Cc1cccc(OCCNc2ccc(C(F)(F)F)cc2[N+](=O)[O-])c1	inactive
C/C(=N\Nc1nccnc1Cl)c1c(F)c(F)c(F)c(F)c1F	inactive
CSc1nc(N)nc(SCC(=O)c2ccccc2)c1C#N	inactive
COc1ccc(-n2c(SCC(N)=O)nnc2-c2ccco2)cc1	inconclusive [inhibitor, full curve]
COc1cc(NC(=O)c2ccc(=O)[nH]n2)cc(OC)c1OC	inactive
CC1CCCCC12NC(=O)N(CC(=O)Nc1ccc(S(=O)(=O)Nc3ncccn3)cc1)C2=O (configuration not stated)	inactive
COc1ccccc1N1C(=O)c2cccnc2C1=O	inconclusive [inhibitor, partial curve, poor fit]
COC(=O)C1=C(C)N(Cc2ccccc2)C(=NCc2cccc(C(F)(F)F)c2)N[C@H]1c1cccc(C(F)(F)F)c1	inconclusive [inhibitor, single point]
Cc1ccc(S(=O)(=O)N2CCN(C(=O)c3ccc(COc4ccccc4)o3)CC2)cc1	active: 11.7 µM
Cc1cccc(N(CC(=O)NC(C)(C)C)C(=O)CCC(=O)Nc2nccs2)c1	inconclusive [inhibitor, partial curve]
O=C(Nc1ccc(Br)c(Cl)c1)C1CC1	inactive
COc1ccc(C)cc1NC(=O)N1CCC(CO)(CC2CCCCO2)CC1 (configuration not stated)	inactive
CC(=O)N1CCCN(C(=O)c2cc(COc3c(F)cccc3F)on2)CC1	inconclusive [inhibitor, single point]
Cc1ccc(Cn2ncc3c(N4CCN(CCc5ccccc5)CC4)ncnc32)cc1	active: 6.57 µM
O=C1OCc2cc(NC(=O)C34CC5CC(CC(C5)C3)C4)ccc21	inactive
O=C(N/N=C/c1cc(O)ccc1Br)c1cccnc1	active: 13.1 µM
CC(C)(C)c1cc(C(=S)N2CCN(CCO)CC2)cc(C(C)(C)C)c1O	inconclusive [inhibitor, single point]
CCc1ccc(C(=O)N/N=C/c2ccncc2)s1	inconclusive [inhibitor, single point]
